Measurements published in the RNAGym collection of RNA variant scans (doi:10.7554/elife.90254).
The source gives no read counts; variants with many changes may rest on few reads.

B1: LINE1-mini (parent)
chain: GGCAGAGCUCAACACAGCGUGGCAAAGUGGCUGUGGCUAGACUGCC

Variants of: B1
Assay: self-cleavage, relative activity (ratio to wild type); higher = more cleavage; in vitro, sequencing; the parent is a self-cleaving ribozyme

| Variant | self-cleavage |
| --- | --- |
| C10U A25U U28A G29C G44A | 0.04 |
| A6C C8A C15A G44U | 0.04 |
| G22A U28A U32A A39U | 0.05 |
| G1A C8U G35U | 0.02 |
| C15G C31U C42A C46U | 0.01 |
| U20G G22A U28G G44U | 0.1 |
| G1U G19U U28G G30A | 0.02 |
| A4G A6C G7U A26U G40C | 0.29 |
| A4C C42A C45A | 0.04 |
| A25C U28C G33U G35C C45G | 0.08 |
| C3G A26U G29A C31A G35A | 0.08 |
| A4C C8A G17A G27U G30C U43G C46A | 0.14 |
| C10G A14U A16C A25C G27A U43C | 0 |
| A12U A16U A25C G29U | 0.07 |
| A11G G21U G29C G35U | 0.01 |
| U20G G21C A39G | 0.04 |
| C8A C18G G19C U20C | 0.26 |
| C15G C18A G29C | 0.02 |
| G1U C3G C31G | 0.06 |
| G29C G30U G35A | 0.03 |
| G17U U20G G44C C45G | 0.02 |

| Variant | self-cleavage |
| --- | --- |
| G5A U9A C15U G22U C23A G30C G35U A39C | 0.01 |
| G7U G27A C37A | 0.02 |
| G33U A39G C45A | 0.04 |
| A6G A24C A41U | 0.06 |
| C3G A16C G30U G33U | 0.02 |
| C13G C18U G19A G21C A26G | 0.06 |
| C23U U28A C31G C45A | 0.06 |
| A14U C31G G33U | 0.07 |
| A6U G7U C18U A41G | 0.21 |
| G17U C23G C31A | 0.24 |
| G27C G30U U38G A41C | 0.01 |
| A11C C15U G44U | 0.04 |
| C3G U20C G40C G44A | 0.04 |
| A4U G5U C15A A25C C31U | 0.01 |
| G2C C31G C37U | 0.07 |
| G5C U34C G44C | 0.04 |
| G22U G27U U28G U32A C37U | 0.02 |
| G1C G5A A25C | 0.01 |
| A11U C13A C18A C37G | 0.01 |
| C10A C13U C46U | 0.02 |
| G5C C18U G19C G22A C23G G44U | 0.02 |

| Variant | self-cleavage |
| --- | --- |
| C8U C18A A26G C42U | 0.09 |
| G2A C15G G22C | 0.02 |
| G2U G19C G21A A25U A41G C46G | 0.01 |
| A6U C10U G21U G35C U43G | 0 |
| G17C A25U A26U G36C | 0.04 |
| C10G A11G U34C C45U | 0.02 |
| A14C G27C G30A C45U | 0.07 |
| G1U A4C C13U G33U U34G | 0.02 |
| G2C G19U G27A U38A G40U | 0.17 |
| A6U G29C G35C | 0.05 |
| G2U A26G G27U | 0.02 |
| G1U G5A U9C C37U U38C G40U | 0 |
| G7U G17A A25C G27A G35A | 0.03 |
| U9G A11U A26G G27A C45A | 0 |
| G1C G33C U38C A39G | 0.01 |
| G5U A11G G27U | 0.02 |
| C23G C37U G44U C46G | 0.01 |
| G7A C10U G35A | 0.02 |
| C3U A4G G27U G44C | 0.08 |
| A26G G29U U32C C37U | 0.02 |
| A6G G36C A41G C46G | 0.01 |

| Variant | self-cleavage |
| --- | --- |
| G7C A14C G17A A25U G44U | 0.01 |
| A6U U9C G19A G29U | 0.16 |
| G1U C3G U9G A25C A41U | 0.04 |
| A6U C13G C18U | 0.05 |
| A6U A24G A26U | 0.2 |
| G7C A11U A12C G36U G40U | 0.01 |
| A11G G21C G30C C46G | 0.01 |
| G17C G21C C46A | 2.29 |
| C13A C15U A39C C46A | 0.03 |
| U20G G35U C37U | 0 |
| C3G U9C C15G C42G | 0.03 |
| A6G C10U C31G C46U | 0.01 |
| C8A C13A A14U C45U | 0.31 |
| G1C G2A G7U C13U A24C G27A | 0.03 |
| A24G G27A A39G G44C | 0.05 |
| A12C A25G C37A A39G | 0 |
| A6G C10A G29C | 0.05 |
| C10A G19U A25U G33C | 0 |
| A4U A16U G21A G29A | 0.12 |
| G29A A41U C46U | 0.81 |
